Measurements: PubChem BioAssay AID760 (NMMLSC, 2007)
About 360 (0.19%) of roughly 190,000 compounds were called active. Inconclusive results, whose numbers are uncertain, are shown with a selection of clear calls.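 The calls were made as follows: active = GTP binding activity at least 20 points away from 100%, either lowered or raised; inconclusive = signal likely due to the compound's own green fluorescence; inactive = the rest.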

Biological target: Ras-related protein Rab-2A (Canis lupus familiaris) (UniProt P61105)
Experiment: Rab2 wt fluorescent GTP binding changes, either direction – biochemical, dog, bead-based flow cytometry, multiplex, primary screen (AID 760);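 also: 0% = beads with excess unlabeled GTP and 100% = no-compound control corrected for plate trend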
Conditions: GST-Rab2 wt beads, Bodipy-GTP binding, at 10 µM

GTP binding activity, inconclusive:
O=C(/C=C/c1cccc(Br)c1)N1CCN(c2cccc(C(F)(F)F)c2)CC1 86%
CC(=O)Nc1ccc(NC(=O)c2ccccc2CC[N+](=O)[O-])cc1 108%
COc1ccccc1N(C(C)=O)c1nc(C)cc(C)c1C#N 102%
CCCSc1nc(C)c(C(C)=O)cc1C#N 102%
COc1cccc(/C=N/Nc2nc3ccccc3n3cnnc23)c1 81%
O=C(CSc1cnc2ccccc2n1)NC1CCCC1 106%
CCOC(=O)c1nn(-c2ccc(C)cc2)c(=O)c2c(N)scc12 95%
CC(=O)Nc1ccc(N2CCCCC2)cc1 102%
COC(=O)c1cc(NCc2c(F)cccc2Cl)ccc1N1CCOCC1 105%
Cc1[nH]c2ccccc2c1C(=O)C(=O)NCc1cccs1 91%
Cc1sc(NC(=S)Nc2ccc(F)cc2)c(C(N)=O)c1C 96%
COC(=O)c1ccc(CSc2n[nH]c(=S)s2)o1 103%
CC(=O)c1ccc(NC(=O)C(C)N2CCN(C/C=C/c3ccccc3)CC2)cc1 (configuration not stated) 675%
CC[C@H](C)[C@H](NC(=O)c1ccc(Cl)cc1)C(=O)OCC(=O)c1ccc2c(c1)NC(=O)CO2 100%
CC(=O)Nc1ccc(S(=O)(=O)NCC(=O)NCCc2ccc(S(N)(=O)=O)cc2)cc1 92%
CC(C)Oc1ccccc1C1CC(=O)Nc2cc3c(cc21)OCCO3 (configuration not stated) 108%
CCC(C)NC(=O)CSc1nnc(-c2ccoc2C)n1CC1CCCO1 (configuration not stated) 104%
O=C(COc1ccc2oc(-c3ccccc3)cc(=O)c2c1)NCc1ccco1 93%
Cc1nnc(SCC(=O)NC2CC2)n1CC1CCCO1 (configuration not stated) 99%
COc1ccc2nc(Nc3nc4ccc(NC(C)=O)cc4s3)sc2c1 90%
CSc1nnc2c(n1)OC(C)=Nc1ccccc1-2 88%
Cc1ccc(C(=O)N2c3ccccc3CC2C)o1 (configuration not stated) 91%
O=C(NCc1ccc(F)cc1)C(c1ccccc1)N(CC1CCCO1)C(=O)Cn1nnc2ccccc21 (configuration not stated) 975%
COc1ccc(C(=O)NNC(=S)NC(=O)c2cc(-c3ccccc3)nc3ccccc23)cc1 91%
COc1ccc(/C=C(/NC(=O)/C=C/c2ccccc2)C(=O)N2CCOCC2)cc1 100%
c1ccc(CSc2ccc3nnc(-c4cccnc4)n3n2)cc1 87%
O=C(O)CCCCCNS(=O)(=O)c1ccc(Cl)cc1 98%
CC(=O)N1CCN(c2ccccc2NC(=O)c2ccc(-c3cccc([N+](=O)[O-])c3)o2)CC1 92%
Cc1cc2nc(-c3ccc(SCc4ccccc4C#N)nc3)[nH]c2cc1C 89%

GTP binding activity, active:
CSc1nc2ccc(NS(=O)(=O)c3c(Cl)cccc3Cl)cc2s1 78%
COCCNC(=S)Nc1cc(OC)c(OC)cc1C#N 59%

GTP binding activity, inactive:
COc1ccc(C(=O)Nc2cc(Cl)ccc2C(=O)O)cc1 83%
Cn1cc(-c2ccccc2)cc(C#N)c1=O 98%
COc1ccc2c3c(cccc13)C(=O)N(O)C2=O 82%
O=C(O)CSc1ncccc1C(=O)O 99%
CCOc1cc(NC(=S)NCCCN2CCOCC2)c(OCC)cc1NC(=O)C1CCCCC1 103%
CCOC(=O)C1=C(N)OC2=C(C(=O)CC(C)(C)C2)C1c1cc(CSc2nnnn2C)cs1 (configuration not stated) 96%
O=C(CCn1c(=O)[nH]c2ccccc2c1=O)NCCCN1CCN(c2cccc(Cl)c2)CC1 101%
COc1cc(S(=O)(=O)N2CCN(C(=O)c3ccccc3)CC2)c(OC)cc1Br 96%
CN(C)C(=O)c1cc(C(=O)c2ccccc2Cl)c[nH]1 98%
Cc1noc(N)c1C1(O)C(=O)Nc2c(Cl)cc(Cl)cc21 (configuration not stated) 97%
O=C(COC(=O)c1ccccc1S(=O)(=O)N1CCCCC1)NCC(F)(F)F 101%
O=C(COc1ccccc1[N+](=O)[O-])Nc1ccc(N2CCN(C(=O)c3cccs3)CC2)cc1 95%
CC(=O)Oc1ccc(-c2cccc(C(=O)N(C)c3ccc(O)cc3)c2)cc1 97%
O=C1C(NS(=O)(=O)c2ccc(Cl)cc2)=C(N2CCCCC2)C(=O)c2ccccc21 94%
COc1cccc(CNc2ccccc2O)c1OCc1ccccc1F 96%
C/C(CC(=O)NC12CC3CC(CC(C3)C1)C2)=N\NC(=O)c1ccc(C)cc1 95%
